The campaign covered roughly 410,000 compounds. About 6,400 (1.6%) were called active. The inconclusive results got no clear call from the source; some entries with a clear call stand among them for comparison. Calls follow the shape of the dose curve; as a rule, active = well fitted inhibition curve with a large enough effect; inconclusive = small, poorly fitted or top-dose-only effect; inactive = no such curve, though single readings can be large or run the other way. Potencies of inconclusive entries are left out as doubtful fits.
biological target: Glucagon-like peptide 1 receptor (Homo sapiens) (UniProt P43220); experiment: qHTS of GLP-1 Receptor Inverse Agonists (Inhibition Mode); details: HEK293 GLP-1R CRE-luciferase, luminescence, 24 h, GLP-1R form is constitutively active; activity change, negative = inhibition: at 38.3 µM (top of the series) unless noted; also: nearly all actives have a fitted effect of over 55% in size
Chain of UniProt P43220 (P43220 whole entry, looked up): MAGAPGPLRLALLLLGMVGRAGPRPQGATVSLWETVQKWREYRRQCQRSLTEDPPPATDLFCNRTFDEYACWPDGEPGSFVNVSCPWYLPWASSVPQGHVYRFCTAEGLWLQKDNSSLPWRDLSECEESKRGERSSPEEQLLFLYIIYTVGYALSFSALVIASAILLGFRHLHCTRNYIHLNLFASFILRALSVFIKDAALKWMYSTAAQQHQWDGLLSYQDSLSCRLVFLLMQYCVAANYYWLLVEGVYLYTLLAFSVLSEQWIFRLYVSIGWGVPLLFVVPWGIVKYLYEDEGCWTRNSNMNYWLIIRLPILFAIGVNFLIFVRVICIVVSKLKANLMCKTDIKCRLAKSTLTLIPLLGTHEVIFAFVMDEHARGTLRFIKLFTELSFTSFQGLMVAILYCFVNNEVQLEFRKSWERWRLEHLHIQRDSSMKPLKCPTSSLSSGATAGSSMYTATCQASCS
Procedure, shortened: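 Inverse agonists were sought by their lowering of basal cAMP reporter luciferase output in HEK293 cells stably carrying constitutively active human GLP-1R, after 24 h compound treatment.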
% is scaled to controls: 0 for no effect and ±100 for the full control effect; potency is read from the fitted curve at half-maximal effect; tags tell the direction and shape of the fitted curve.

| Compound | Potency | activity change, negative = inhibition |
| --- | --- | --- |
| O=C(Nc1ccc(S(=O)(=O)NC2=NCCCCC2)cc1)c1ccc([N+](=O)[O-])s1 | inconclusive [inhibitor, single point] |  |
| CCOc1cc(/C=C2\SC(=N)N(c3nccs3)C2=O)ccc1OCCN1CCOCC1 |  | inactive: -20.1% |
| COc1ccc(C)cc1S(=O)(=O)N1CCOCC1 |  | inactive: 34.9% |
| CN1CCN(CCC(=O)Nc2ccc(C3CCCC3)cc2)CC1 | inconclusive [inhibitor, partial curve, poor fit] |  |
| Nn1c(COc2cccc(Br)c2)nnc1SCC(=O)N1CCc2ccccc2C1 | inconclusive [inhibitor, partial curve, poor fit] |  |
| COc1ccc(C(=O)COC(=O)c2cccc(-n3cnnn3)c2)c(OC)c1 |  | inactive: 34.3% |
| COc1ccc(-c2nn3c(=O)cc(CN4CCN(C(=O)Nc5ccc(C)c(Cl)c5)CC4)nc3s2)cc1 |  | inactive: 9.82% |
| Brc1cccc(-c2cnc3n2CCCCC3)c1 | inconclusive [inhibitor, partial curve, poor fit] |  |
| COc1ccc(CCNC(=O)c2nnc(Cc3ccc(Cl)cc3)o2)cc1OC | inconclusive [inhibitor, single point] |  |
| O=Nc1c(-c2c(O)[nH]c3cc(Br)ccc23)[nH]c2ccccc12 | inconclusive [inhibitor, partial curve, poor fit] |  |
| CCOC(=O)CSC1=C(C#N)C(c2ccccc2F)C(C(C)=O)=C(C)N1 (stereo unspecified) | inconclusive [inhibitor, single point] |  |
| CC(C)c1ccc(NC(=O)CN2C(=O)COc3ccc(S(=O)(=O)Nc4ccccc4)cc32)cc1 |  | inactive: -2.06% |
| CCOc1ccc(CN2CCN(CCCc3ccccc3)C(CCO)C2)cc1 (stereo unspecified) | inconclusive [inhibitor, partial curve] |  |
| O=C(Nc1ccc(Br)cc1)C1CCN(S(=O)(=O)c2cccc3nsnc23)CC1 |  | inactive: -4.57% |
| Cc1onc(-c2ccccc2)c1C(=O)N/N=C/C(Br)=C/c1ccccc1 | inconclusive [inhibitor, single point] |  |
| COc1ccc(/C=C(/NC(=O)c2cccs2)C(=O)NCc2ccco2)cc1OC | inconclusive [inhibitor, partial curve, poor fit] |  |
| O/N=C/c1cc(Br)ccc1OCc1ccc(F)cc1 | inconclusive [inhibitor, single point] |  |
| NC(=O)C1=C[C@@H](c2ccc(C(F)(F)F)cc2)C[C@@H](OCc2ccc(CO)cc2)O1 |  | inactive: -6.17% |
| COc1ccc(C)cc1NC(=O)NC1CCCCCCC1 | inconclusive [inhibitor, partial curve, poor fit] |  |
| CCCCNC(=O)C1(C)CCCCN1C(=O)c1ccc2c(c1)C(C)(C)CCC2(C)C (stereo unspecified) | inconclusive [inhibitor, partial curve, poor fit] |  |
| CCC(C(=O)Nc1ccc(OC)c(Cl)c1)c1ccccc1 (stereo unspecified) | inconclusive [inhibitor, single point] |  |
| Cn1c(=O)c(C(=O)NCC2CCCO2)c(O)c2ccccc21 (stereo unspecified) | inconclusive [inhibitor, single point] |  |

| Compound | Potency | activity change, negative = inhibition |
| --- | --- | --- |
| COc1cccc(-c2nn(-c3ccc(C)cc3)cc2C(=O)NCC(c2cccs2)N2CCOCC2)c1 (stereo unspecified) | inconclusive [inhibitor, partial curve, poor fit] |  |
| O[C@H]1CN(CC2CCCCC2)[C@@H](c2ccc(Cl)cc2)C[C@@H]1n1cc(-c2ccc(F)cc2)nn1 |  | inactive: 3.91% |
| C/C(=N\OCc1ccccc1)c1c(O)cc(C(C)C)n(-c2ccccc2)c1=O | inconclusive [inhibitor, partial curve, poor fit] |  |
| Cc1ccc(C(=O)N2CCc3cc(CNC(=O)COc4ccccc4)ccc32)cc1 | inconclusive [inhibitor, partial curve, poor fit] |  |
| CC(C)C1C(=O)N(Cc2cn(CCC3OCCO3)nn2)CCS(=O)(=O)N1Cc1ccc(-c2ccc(F)cc2Cl)cc1 (stereo unspecified) | inconclusive [inhibitor, single point] |  |
| CCOC(=O)C1CCN(c2c(Nc3ccc4c(c3)OCCO4)c(=O)c2=O)CC1 | inconclusive [inhibitor, single point] |  |
| CCN(CC)CC(=O)NN=C(c1ccccc1)c1ccccc1 | inconclusive [inhibitor, partial curve, poor fit] |  |
| CCc1ccc2nc(N(CCN(C)C)C(=O)c3ccc4ccccc4c3)sc2c1 | active: 12.6 µM |  |
| Cc1ccc(-c2n[nH]c(=S)n2/N=C/C=C/c2ccccc2[N+](=O)[O-])cc1 | inconclusive [inhibitor, single point] |  |
| O=C1CN(C(=O)Cn2ncc(Cl)c(Cl)c2=O)c2ccccc2N1 | inconclusive [inhibitor, single point] |  |
| COc1ccc(CC(N)c2csc(NC(=O)Nc3ccccc3-c3ccccc3)n2)cc1 (stereo unspecified) | inconclusive [inhibitor, single point] |  |
| C[C@@]12C(=O)N(c3cccc(F)c3)C(=O)N1[C@H](c1ccc(Cl)cc1)[C@@H]1C(=O)N(C3CCCCC3)C(=O)[C@@H]12 | inconclusive [inhibitor, partial curve] |  |
| CCNc1nc(Cl)nc(NCc2ccccc2)n1 |  | inactive: 15.2% |
| CC1=C(c2ccccc2)C(O)(c2ccccc2)C(C)C1=O (stereo unspecified) | inconclusive [inhibitor, partial curve] |  |
| O=C(NC(=S)Nc1cccc2[nH]ncc12)c1ccccc1 | inconclusive [inhibitor, partial curve, poor fit] |  |
| CCOC(=O)c1sc(N2N=C(C)/C(=C\c3ccc(OCC(=O)OC)cc3)C2=O)nc1C |  | inactive: 0% |
| CC1CCN(S(=O)(=O)c2ccc3c(c2)N(CC(=O)NC(C)c2ccccc2)C(=O)CO3)CC1 (stereo unspecified) |  | inactive: -1.79% |
| Cc1ccc(CNc2ncnc3cc(Cl)ccc23)cc1 | inconclusive [inhibitor, partial curve] |  |
| CC(C)C(NC(=O)c1c(F)cccc1F)C(=O)N1CCN(c2ccccc2F)CC1 (stereo unspecified) | inconclusive [inhibitor, single point] |  |
| O=S(=O)(Nc1cccc(-c2ccc(N3CCCCC3)nn2)c1)c1cccc(F)c1 | inconclusive [inhibitor, single point] |  |
| COc1ccccc1C1(O)CCN(C(=O)c2cccs2)CC1 |  | inactive: 0% |
| O=C(COC(=O)c1c(F)cccc1F)NC(=O)NCc1ccccc1 |  | inactive: 4.47% |

| Compound | Potency | activity change, negative = inhibition |
| --- | --- | --- |
| CC(=O)c1cnc(Nc2ccc(C)cc2)s1 |  | inactive: 76.3% |
| COC(=O)c1ccc(C(=O)NC2CCCc3c2cnn3-c2cc(F)cc(F)c2)nc1 (stereo unspecified) | inconclusive [inhibitor, partial curve, poor fit] |  |
| OC(c1ccccc1)(c1nc(-c2cccc(C(F)(F)F)c2)cs1)C(F)(F)F (stereo unspecified) | inconclusive [inhibitor, single point] |  |
| CS(=O)(=O)Nc1cccc(NC(=O)C2Cc3c(-c4cccc(F)c4)ccnc3O2)c1 (stereo unspecified) | inconclusive [inhibitor, full curve, poor fit] |  |
| CC(=O)Oc1c(C(=O)c2nnc(C)o2)c(=O)n(Cc2ccccc2)c2ccccc12 | inconclusive [inhibitor, full curve] |  |
| COc1cc(CNCC(C)C)cc(Br)c1OCC(=O)Nc1ccccc1 | inconclusive [inhibitor, single point] |  |
| Clc1ccc(CSc2nc3ccncc3[nH]2)cc1 | inconclusive [inhibitor, single point] |  |
| COCCCNC(=O)c1cc2c(=O)n3cccc(C)c3nc2s1 | inactive |  |
| COc1ccc(N2CCN(c3nc(-c4ccccc4F)nc4ccccc34)CC2)cc1 | inconclusive [inhibitor, partial curve] |  |
| COc1ccc(CC(=O)NCc2ccc(-n3cccc3)cc2)cc1OC | inconclusive [inhibitor, full curve, poor fit] |  |
| Cc1cc(NC(=O)C2CCN(S(=O)(=O)Cc3ccccc3)CC2)ccc1-n1cnnn1 | inconclusive [inhibitor, single point] |  |
| Cc1ccc(NC(=O)CN(C)C(=O)c2cc(-c3ccco3)nc3ccccc23)cc1 | inconclusive [inhibitor, single point] |  |
| COCCNC(=O)c1c(NC(=O)Cc2coc3cc(C)ccc23)sc2c1CCCC2 | inconclusive [inhibitor, single point] |  |
| Cc1nnc(N2CCN(c3ccccc3F)CC2)c2c1nnn2Cc1ccc(F)cc1 |  | inactive: 6.91% |
| N#Cc1ccccc1NC(=O)c1cc(=O)c2ccccc2o1 |  | inactive: -17.5% |
| O=C(Nc1cc(Cl)cc(Cl)c1)c1cccc(OC(F)F)c1 | active: 12.6 µM |  |
| O=C(Nc1nnc(-c2ccco2)o1)c1ccc(Br)s1 |  | inactive: -28% |
| CN(CC(=O)Nc1ccc(Cl)c(C(F)(F)F)c1)C(=O)CCN1C(=O)C2CC=CCC2C1=O (stereo unspecified) | inconclusive [inhibitor, single point] |  |
| N#Cc1ccc(CN2CCN(CC(=O)NCCc3ccc(Cl)cc3Cl)CC2)cc1 | inconclusive [inhibitor, partial curve, poor fit] |  |
| COc1ccccc1NC(=O)C(C)OC(=O)CC1CCCCC1 (stereo unspecified) | inconclusive [inhibitor, single point] |  |
| CCOc1ccc(OCCn2c(=S)[nH]c3c(N)ncnc32)cc1 |  | inactive: 47.2% |
| O=C(OCc1ccccn1)c1ccc(COc2ccccc2Cl)o1 | inconclusive [inhibitor, single point] |  |

— PubChem BioAssay AID624417 (National Center for Advancing Translational Sciences (NCATS), 2012)
